# Assay results: PubChem BioAssay AID1671194 (National Center for Advancing Translational Sciences (NCATS), 2021)
# About 240 (0.17%) of roughly 140,000 compounds were called active. The shares of active, inactive and inconclusive entries below differ from those in the screen. Calls follow the shape of the dose curve; as a rule, active = well fitted inhibition curve with a large enough effect; inconclusive = small, poorly fitted or top-dose-only effect; inactive = no such curve, though single readings can be large or run the other way. Potencies beside an inconclusive call are fits to weak or partial responses and may not hold up.
# Assay: Primary qHTS assay for inhibitors of alpha-synuclein gene (SNCA) expression; also: nearly all actives have a fitted effect of over 45% in size
# Details: HEK-293 SNCA-luciferase knock-in, luminescence, 24 h; series mostly up to 57.2 µM
# Potency is read from the fitted curve at half-maximal effect; tags tell the direction and shape of the fitted curve.
row,SMILES,Potency
1,O=C(c1nc2sccn2c1-c1ccccc1)N1CCOCC1,inactive
2,O=C(NCc1ccccc1)c1cn2cc(-c3ccc(C(F)(F)F)cc3)sc2n1,inactive
3,CCn1cc2nc(SCC(=O)Nc3ccc(C)cc3C)n(Cc3ccc(C)cc3)c(=O)c2n1,"inconclusive: 8.91 µM [inhibitor, full curve]"
4,COc1ccc(OCC2(C)COc3ccc(C(=O)NCc4ccc(F)cc4)cc3N2)cc1 (stereo not given),"inconclusive: 56.2 µM [inhibitor, single point]"
5,Cc1noc(C)c1C(=O)N1CCOc2ccc(CCC(=O)NCC3CC3)cc2C1,"inconclusive: 14.1 µM [inhibitor, partial curve, poor fit]"
6,CCCc1ccc(C2Sc3ccccc3NC3=C2C(=O)c2ccccc23)cc1 (stereo not given),"inconclusive: 17.8 µM [inhibitor, partial curve, poor fit]"
7,CCOC(=O)CNS(=O)(=O)c1cc(-c2nnc(Nc3cccc(O)c3)c3ccccc23)ccc1C,"inconclusive: 11.2 µM [inhibitor, partial curve]"
8,FC(F)(F)c1ccc(CN2CC[C@H](c3nc4cc(Cl)ccc4o3)C2)cc1,inactive
9,COCC1CN(C2CCC2)CC12CCN(C(=O)NCCc1ccccc1)CC2 (stereo not given),inactive
10,Cc1noc(-c2nnn3c2COC(c2ccc(F)cc2)C3)n1 (stereo not given),inactive
11,CCOc1ccccc1NC(=O)N1CCC(c2noc(COC)n2)C1 (stereo not given),"inconclusive: 12.6 µM [inhibitor, partial curve, poor fit]"
12,Cc1nnnn1-c1cccc(-c2nc(Cc3cccs3)nn2CCO)c1,inactive
13,O=C(c1n[nH]c2ccccc12)N1CCC(Cc2nc(-c3ccccc3)n[nH]2)CC1,inactive
14,CCc1ccc(NC(=O)COc2cccc(-c3nnc4n3CCCC4)c2)cc1,inactive
15,N#Cc1ccc(CN2CC(CNC(=O)c3ccccc3)C3(C2)CN(c2ccccc2)C3)cc1 (stereo not given),"inconclusive: 35.5 µM [inhibitor, single point]"
16,CCNC(=O)N1CCCC1c1noc(CCC(=O)NCc2cccc(C(F)(F)F)c2)n1 (stereo not given),"inconclusive: 5.01 µM [inhibitor, single point]"
17,O=C(Nc1ccc(F)cc1)c1ccn2cncc2c1,inactive
18,CN(C)C(=O)C1=NOC2CN([S+](C)(=O)[O-])CC12 (stereo not given),"inconclusive: 35.5 µM [inhibitor, partial curve, poor fit]"
19,Cc1cc(C)cc(NC(=O)N2CCC(F)(c3nc(-c4ccncc4)no3)CC2)c1,inactive
20,CCCc1cc(C(=O)N[C@@H]2CCOC[C@H]2OCCO)n(C)n1,"inconclusive: 3.16 µM [inhibitor, partial curve, poor fit]"
21,CC(C)c1ccc(NC(=O)C2CCCN(S(=O)(=O)c3cccc4cccnc34)C2)cc1 (stereo not given),"inconclusive: 0.178 µM [inhibitor, single point]"
22,Cc1cc(=O)n(CC(=O)Nc2ccccc2C)c(N(C)Cc2ccccc2)n1,"inconclusive: 12.6 µM [inhibitor, single point]"

row,SMILES,Potency
1,CCCCN(C)CCCNC(=O)C1CCN(c2nc3ccc(CC)cc3s2)CC1,"inconclusive: 39.8 µM [inhibitor, single point]"
2,CC1(c2ccccc2)N(Cc2ccc(O)cc2)C(=O)OC12CCN(C(=O)c1cccnc1)CC2 (stereo not given),inactive
3,CCOC(=O)C1=C(CS(=O)(=O)c2cccc(C(F)(F)F)c2)NC(=O)NC1c1cccc(OC)c1 (stereo not given),"inconclusive: 0.178 µM [inhibitor, partial curve, poor fit]"
4,O=C(Nc1ccc(Oc2ccccc2)cc1)O[C@@H]1CO[C@H]2[C@@H]1OC[C@@H]2Nc1nccc(-c2cccs2)n1,"inconclusive: 35.5 µM [inhibitor, single point]"
5,CCOc1ccc(CC(=O)N2CCC[C@H]2c2nc(-c3ccc(C)cc3)no2)cc1OCC,"inconclusive: 35.5 µM [inhibitor, single point]"
6,CCOC(=O)c1c(N)n(-c2ccc(C)c(Cl)c2)c2nc3ccccc3nc12,"inconclusive: 2.82 µM [inhibitor, single point]"
7,CC(C)OCCCNC(=O)c1ccc2c(c1)N(Cc1c(F)cccc1Cl)C(=O)c1ccccc1S2,"inconclusive: 39.8 µM [inhibitor, single point]"
8,Cc1cc(Cl)ccc1OCC(=O)N1CCC(c2n[nH]c(=O)n2-c2ccccc2)CC1,inactive
9,CCOC(=O)CC(NS(=O)(=O)c1ccc2[nH]c3c(c2c1)CCCC3)c1ccccc1Cl (stereo not given),"inconclusive: 3.16 µM [inhibitor, partial curve, poor fit]"
10,Cc1noc(/C=C/c2cccs2)c1S(=O)(=O)N1CCC(C(=O)Nc2ccc(F)c(Cl)c2)CC1,"inconclusive: 6.31 µM [inhibitor, partial curve, poor fit]"
11,CCOc1ccc(NC(=O)c2ccc(NC(=O)N3CCSc4ncccc43)cc2)cc1,"inconclusive: 17.8 µM [inhibitor, single point]"
12,COc1cccc(CC(=O)N2CC[C@H](CO)[C@H](NC(=O)C3CC3)C2)c1,"inconclusive: 28.2 µM [inhibitor, partial curve, poor fit]"
13,CCN1CCC(OCCCNC(=O)c2ccc(CC3CCN(C(C)=O)CC3)cc2)CC1,inactive
14,COc1ccc(-c2noc(-c3nc(Cc4ccccc4)no3)n2)cc1,inactive
15,CCCn1c2ccccc2c2cnn(CC(=O)N(C)c3ccc(F)cc3)c(=O)c21,"inconclusive: 17.8 µM [inhibitor, single point]"
16,O=C(CSc1ccccc1)N1CCc2c([nH]c3ccccc23)C1c1ccc(F)cc1 (stereo not given),"inconclusive: 25.1 µM [inhibitor, single point]"
17,NC(Cc1ccccc1)C(=O)N1CCC2(CC1)CN(C(=O)c1ccc(Cl)cc1)CCO2 (stereo not given),"inconclusive: 39.8 µM [inhibitor, single point]"
18,Cc1cccc(C)c1OCCn1c(C2CC(=O)N(c3cccc(Cl)c3)C2)nc2ccccc21 (stereo not given),"inconclusive: 0.562 µM [inhibitor, single point]"
19,COc1cccc(NC(=O)C2CCCN(S(=O)(=O)c3c(C)nn(C)c3C)C2)c1 (stereo not given),inactive
20,CC(=O)N1CCNc2cc(Nc3ccc(F)cc3)ncc2C1,"inconclusive: 28.2 µM [inhibitor, single point]"
21,COc1ccc(-c2[nH]c3ccccc3c2SCCNC(=O)c2cc(OC)c(OC)c(OC)c2)cc1,"inconclusive: 31.6 µM [inhibitor, single point]"
22,COc1ccc(-c2cc(C(F)(F)F)nc(S(=O)(=O)CCCC(=O)Nc3cccc(O)c3)n2)cc1OC,"inconclusive: 39.8 µM [inhibitor, single point]"

row,SMILES,Potency
1,COc1cccc(NC(=O)N2CCC(OC3CCN(S(C)(=O)=O)CC3)CC2)c1,inactive
2,NC(N)=NC(N)=NCCc1ccccc1,"inconclusive: 0.541 µM [inhibitor, single point]"
3,COc1ccc(-c2nc3n(n2)CCN(C(=O)c2ccc(Cl)cc2)C3)cc1,"inconclusive: 0.631 µM [inhibitor, single point]"
4,O=C(NC1CCN(c2ccnc3ccnn23)CC1)c1cncc(Br)c1,"inconclusive: 35.5 µM [inhibitor, partial curve, poor fit]"
5,CCN(CC)C(=O)C1CCC(c2nc3ncccc3o2)CC1 (stereo not given),"inconclusive: 2.51 µM [inhibitor, full curve, poor fit]"
6,COc1ccccc1CNC(=O)c1oc2ccc(S(=O)(=O)N3CCCCC3)cc2c1C,"inconclusive: 39.8 µM [inhibitor, single point]"
7,COc1ccc(NC(=O)Nc2cccc(-c3ccc(N4CCOCC4)nn3)c2)cc1,inactive
8,CN(Cc1ccc(F)cc1)c1ccc2ncc(Nc3ccc4c(c3)OCCO4)n2n1,inactive
9,Cc1cc2nc3n(c(=O)c2n1CC(=O)Nc1ccc(Br)cc1F)CCC3,inactive
10,Fc1ccc(CN2CCOC[C@H]2c2ncc(-c3ccc(Cl)s3)[nH]2)cc1,"inconclusive: 56.2 µM [inhibitor, single point]"
11,COc1ccc(-c2nc3ccccc3s2)cc1NC(=O)COc1ccc(C)cc1,inactive
12,O=C(c1cccc2cnccc12)N1CCC2(CC1)Nc1ccccc1NC2=O,"inconclusive: 3.55 µM [inhibitor, full curve, poor fit]"
13,CCCN(CC1CCOC1)S(=O)(=O)c1ccc(Cl)cc1 (stereo not given),inactive
14,COc1ccccc1N(CC(=O)NCCSCc1ccccc1)S(=O)(=O)c1ccc(C)cc1,"inconclusive: 39.8 µM [inhibitor, single point]"
15,O=C(CCC[C@@H]1[C@H]2CCCN3CCC[C@@H](CN1Cc1cccnc1)[C@@H]23)N1CCN(C2CCCC2)CC1,"inconclusive: 5.01 µM [inhibitor, full curve, poor fit]"
16,O=C1CN(C(=O)Cc2ccc(F)cc2)C(c2ccccc2)c2cc(Cl)ccc2N1 (stereo not given),"inconclusive: 39.8 µM [inhibitor, single point]"
17,COc1ccccc1C(=O)Nc1ccc2ncnc(N3CCCCC3)c2c1,"inconclusive: 39.8 µM [inhibitor, single point]"
18,COc1ccc(N2CC(c3noc(-c4ccc5c(c4)OCO5)n3)CC2=O)cc1 (stereo not given),inactive
19,COc1ccccc1CN1Cc2cc(NS(=O)(=O)c3ccc(C)c(F)c3)ccc2OC(C)C1=O (stereo not given),"inconclusive: 20 µM [inhibitor, single point]"
20,COc1cccc(C(=O)NC2CCN(c3cc(-c4cccs4)[nH]n3)CC2)c1,"inconclusive: 6.31 µM [inhibitor, full curve, poor fit]"
21,CCOC(=O)c1cc(-c2ccccc2)n(CCCC(=O)Nc2ccc(C(C)C)cc2)c1C,"inconclusive: 22.4 µM [inhibitor, single point]"
